# Measured values as given in PubChem BioAssay AID624202 (National Center for Advancing Translational Sciences (NCATS), 2012).
# The whole screen tested about 380,000 compounds, of which about 4,000 (1.1%) were called active. Inconclusive results, whose numbers are uncertain, are shown with a selection of clear calls. Calls come from the whole dose curve; as a rule, active = well fitted activation curve with a large enough effect; inconclusive = small, poorly fitted or top-dose-only effect; inactive = no such curve, though single readings can be large or run the other way. Where the call is inconclusive, the potency comes from a doubtful curve fit.
# Test: qHTS Assay to Identify Small Molecule Activators of BRCA1 Expression; note: nearly all actives have a fitted effect of over 80% in size
# Details: MCF7-BRCA1-FFLuc reporter, luminescence, 48 h; activation: at 46.1 µM (top of the series), scaled: vehicle 0%, 10 µM genistein 100% unless noted
# Procedure, shortened: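 Reporter cells (MCF7, BRCA1 promoter-firefly luciferase) received library compounds across a concentration series for 48 h. End-point luminescence was measured and concentration-effect curves derived after normalization.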
# Potency is the fitted concentration of half-maximal effect; tags give direction and shape of the fitted curve.
SMILES,activation,Potency
CCOc1ccc(S(=O)(=O)Nc2ccc3c(c2)n(C)c(=O)n3C)cc1,inactive: -57.3%,–
COc1ccc(NC(=O)Nc2ccc3c(c2)OCO3)c(C)c1,–,"inconclusive: 11.2 µM [activator, partial curve, poor fit]"
O=C(Nc1ccc(Cl)cc1)N1CCC(c2nc(-c3ccccc3Cl)no2)CC1,inactive: -65.1%,–
CCOC(=O)c1cc2nc(Nc3ccc(OC)cc3)sc2s1,–,"inconclusive: 3.55 µM [activator, partial curve, poor fit]"
Nc1cccc(C#Cc2ccc3c(=O)c4ccccc4oc3c2)c1,–,"inconclusive: 1.78 µM [activator, partial curve, poor fit]"
COc1ccc(-c2noc(CCC(=O)N3CCN(c4cccc(Cl)c4)CC3)n2)cc1,inactive: 0.839%,–
CC(=O)Nc1ccc(NC(=O)C(C)OC(=O)c2ccccc2NS(=O)(=O)c2cccs2)cc1 (stereo unspecified),inactive: -17.6%,–
O=C(c1cccc(COc2cccc3ccccc23)c1)N1CCCC1,–,"inconclusive: 2.51 µM [activator, partial curve, poor fit]"
CCCOc1ncnc2c1[nH]c1ccc(C)cc12,–,"inconclusive: 3.55 µM [activator, full curve, poor fit]"
CCc1nnc(NC(=O)c2oc3ccc(Br)cc3c2C)s1,–,"inconclusive: 1.12 µM [activator, full curve, poor fit]"
COc1ccc(NC(=O)CN(C)C(=O)c2n[nH]c3ccccc23)cc1,–,"inconclusive: 35.5 µM [activator, single point]"
NC(=O)C1CCN(C(=O)COc2ccc(S(=O)(=O)NC3CCCC3)cc2)CC1,inactive: -7.37%,–
O=C(c1ccccc1)c1cnc(-c2ccccc2)s1,–,"inconclusive: 1.58 µM [activator, full curve, poor fit]"
COc1cccc(OCc2cc(C(=O)N3CCN(C(C)=O)CC3)no2)c1,–,"inconclusive: 11.2 µM [activator, partial curve, poor fit]"
O=C(Nc1ccc2c(c1)OCO2)C(=O)c1c[nH]c2ccccc12,–,"inconclusive: 1.12 µM [activator, full curve, poor fit]"
COc1ccc(-c2csc(N3CCN(C(=O)c4ccco4)CC3)n2)cc1,inactive: 3.72%,–
CC(=O)N/N=C(/C)c1ccc(NC(=O)c2csc(C)c2C)cc1,–,"inconclusive: 1.78 µM [activator, full curve, poor fit]"
COC(=O)Cc1ccc(OCc2ccc(Cl)nc2)cc1,–,"inconclusive: 35.5 µM [activator, single point]"
Cc1cc(C(=O)Nc2ccc3ccccc3c2)c(C)o1,–,"inconclusive: 2.24 µM [activator, partial curve, poor fit]"
COc1cc(/C=N/NC(=O)c2ccoc2C)ccc1O,–,"inconclusive: 14.1 µM [activator, single point]"
COc1cc(CNc2ncn[nH]2)ccc1OCc1cccc(C)c1,–,"inconclusive: 12.6 µM [activator, partial curve, poor fit]"
Cc1ccc(COc2coc(CO)cc2=O)cc1,–,"inconclusive: 15.8 µM [activator, partial curve, poor fit]"
CC(=O)n1cc(/C=N/NC(=O)c2ccc(Cl)cc2)c2ccccc21,–,"inconclusive: 31.6 µM [activator, single point]"
CCN(CC1CCCO1)C(=O)c1cc(COc2cc(C)c(Cl)c(C)c2)on1 (stereo unspecified),–,active: 6.31 µM

SMILES,activation,Potency
CCC(=O)Nc1cccc(-c2cn3ccccc3n2)c1,–,"inconclusive: 14.1 µM [activator, single point]"
COC(=O)C1C(=O)c2c([nH]c(C(=O)OC3CCCCC3)c2C)CC1C (stereo unspecified),–,active: 5.01 µM
OCc1cn(-c2ccccc2)nn1,inactive: -20.6%,–
CC(=O)N=c1n(C)c2ccccc2n1CCOc1ccccc1,–,"inconclusive: 22.4 µM [activator, single point]"
CC(C)CC(=O)Nc1ccc2oc(-c3ccncc3)nc2c1,–,"inconclusive: 35.5 µM [activator, single point]"
CSc1ccccc1C(=O)N1CCc2ccc(NC(=O)c3ccccn3)cc2C1,–,"inconclusive: 1.58 µM [activator, partial curve, poor fit]"
COc1ccc(S(=O)(=O)N2c3ccccc3OCC2C)cc1 (stereo unspecified),inactive: -53.7%,–
COCc1nnc(NC(=O)c2cc3ccccc3o2)s1,–,active: 6.31 µM
CCN(CC)C(=O)C1=C(C)N(CCCOC)C(=O)C(CC(=O)NC2CC2)C1 (stereo unspecified),inactive: -11.4%,–
CCC(=O)Nc1nnc(/C=C/c2ccccc2)s1,–,"inconclusive: 7.08 µM [activator, partial curve, poor fit]"
Cc1cc(C)n(-c2ccc(C(=O)Nc3sccc3C(N)=O)cc2)n1,–,active: 1 µM
Oc1ccc(-c2cnc(-c3ccc(O)cc3)nc2)cc1,–,"inconclusive: 0.501 µM [activator, full curve, poor fit]"
Cn1c(C(=O)N2CCc3ccccc3C2)cc2oc3ccccc3c21,–,"inconclusive: 1.58 µM [activator, partial curve, poor fit]"
CCn1ncc(/C=N/N=C2\CCC3C4CCc5cc(O)ccc5C4CCC23C)c1C (stereo unspecified),inactive: -31%,–
NC(=O)c1c(NC(=O)c2ccccc2)sc2c1CCCC2,–,"inconclusive: 7.08 µM [activator, full curve, poor fit]"
Cc1nc(C)c(-c2ccc(SCC(=O)Nc3ccc(C)c(Cl)c3)nn2)s1,inactive: -28.2%,–
CC(C)[C@H](NC(=O)c1ccc(Cl)cc1Cl)C(=O)NNc1cccc(C(=O)O)c1,–,"inconclusive: 15.8 µM [activator, partial curve, poor fit]"
O=C(c1ccncc1)N(c1ccc(N2CCOCC2)cc1)C(c1ccccc1)c1nc2ccccc2[nH]1 (stereo unspecified),–,"inconclusive: 3.16 µM [activator, full curve, poor fit]"
Cc1cccnc1Nc1nc(-c2ccc(O)cc2)cs1,–,active: 4.47 µM
CC1CC(C)CN(c2ncnc3c2cnn3-c2ccc(Cl)cc2)C1 (stereo unspecified),–,"inconclusive: 3.16 µM [activator, partial curve, poor fit]"
N#C/C(=C/c1ccc(N2CCCCC2)o1)C(=O)Nc1ccc(Cl)cc1,–,active: 4.47 µM
CC(C)OC(=O)CSc1nnc(-c2ccc(C(C)(C)C)cc2)n1N,inactive: 0.593%,–
COc1ccc(CCc2nc(C)ccc2O)cc1,–,"inconclusive: 12.6 µM [activator, partial curve, poor fit]"
CCOC(=O)/C(C#N)=C/c1cc(C)n(-c2ccccc2)c1C,–,"inconclusive: 1.58 µM [activator, partial curve, poor fit]"

SMILES,activation,Potency
O=C(NCCc1ccc(Cl)cc1)c1ccc2nccnc2c1,–,"inconclusive: 1.58 µM [activator, full curve, poor fit]"
Nc1ccccc1C#CC(=O)c1ccccc1,inactive: -103%,–
CC1(c2ccccc2)NC(=O)N(CC(=O)N(CC(=O)Nc2ccccc2C(F)(F)F)Cc2ccco2)C1=O (stereo unspecified),inactive: 11.7%,–
Nc1ccccc1C(=O)NC(=O)Nc1ccc(Oc2ncc(Br)cn2)c(Cl)c1,inconclusive: -87.6% [activator],–
O=C(NC1CC1)c1ccc2c(c1)ncn2C1CCCC1,–,"inconclusive: 12.6 µM [activator, partial curve, poor fit]"
C=CCSc1n[nH]c(-c2ccccc2)n1,–,"inconclusive: 12.6 µM [activator, partial curve, poor fit]"
O=C(c1cc2c(s1)-c1ccccc1OC2)N1CCc2ccccc2C1,–,"inconclusive: 22.4 µM [activator, single point]"
O=C(CC(Nc1ccc(F)cc1)C(=O)O)c1ccccc1 (stereo unspecified),–,"inconclusive: 8.91 µM [activator, partial curve, poor fit]"
COc1ccc(NC(=O)c2ccc3snnc3c2)cc1,–,active: 6.31 µM
O=c1oc(Nc2ccccc2Cl)nc2ccccc12,–,"inconclusive: 11.2 µM [activator, partial curve, poor fit]"
O=C(CSc1nnc(-c2cccs2)o1)N1CCCCC1,–,"inconclusive: 1.26 µM [activator, full curve, poor fit]"
Cc1nn(C)c(C)c1N1C(=O)c2cccc3c(N)ccc(c23)C1=O,inactive: -16.5%,–
CCOC(=O)/C(C#N)=C1/C=CN(c2ccc(C)cc2)C=N1,–,"inconclusive: 12.6 µM [activator, partial curve, poor fit]"
Cc1ccc(-n2cnc3c(sc4nccc(N(C)C)c43)c2=O)cc1,–,"inconclusive: 10 µM [activator, partial curve, poor fit]"
CCCCOC(=O)Nc1cccc(C(=O)OCC)c1,inconclusive: 76.3% [activator],–
CN1C(=O)CSc2ccc(NC(=O)N3CCc4ccccc43)cc21,–,"inconclusive: 2.82 µM [activator, full curve, poor fit]"
O=c1c(-c2ccc3c(c2)OCCO3)coc2cc(O)cc(O)c12,–,"inconclusive: 2.24 µM [activator, full curve, poor fit]"
CC(=O)Nc1ccc(NC(=O)CN2CCCC(C)C2)c(Cl)c1 (stereo unspecified),–,active: 11.2 µM
COc1cncc(C#Cc2ccccn2)c1,–,active: 4.47 µM
COc1cccc2cc(NC(=O)C3CCCCC3)c(=O)oc12,–,active: 6.31 µM
CN(C)c1ccc(C(=O)OCC(=O)c2ccc[nH]2)cc1,–,"inconclusive: 10 µM [activator, partial curve, poor fit]"
COc1cccc(-c2cc(C(=O)Nc3ccccc3SC)no2)c1,–,"inconclusive: 7.94 µM [activator, partial curve, poor fit]"
COc1ccc(C)c2sc(=NC(=O)c3ccc(C(C)=O)cc3)n(C)c12,–,active: 0.794 µM
